Data taken from PubChem BioAssay AID1159614 (National Center for Advancing Translational Sciences (NCATS), 2016).
About 65 (0.1%) of roughly 45,000 compounds were called active. Calls come from the whole dose curve; as a rule, active = well fitted activation curve with a large enough effect; inconclusive = small, poorly fitted or top-dose-only effect; inactive = no such curve, though single readings can be large or run the other way. Some of the results follow.

Target: Galactocerebrosidase (Homo sapiens) (UniProt P54803)
Experiment: A Novel Cell-Based Assay to Identify Small Molecules for B -Galactocerebrosidase; note: 0% is about no effect; nearly all actives have a fitted effect of over 65% in size
Conditions: 145M-Twi-hGALC-G270D cells (Twitcher mouse brain line with human GALC G270D), HMU-beta-Gal fluorescence, 48 h; series mostly up to 57.5 µM; activation: at the top concentration
Outline: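 Mutant human GALC (G270D), stably expressed in a Twitcher mouse brain cell line lacking endogenous GALC, is measured in live-treated cells via 6-hexadecanoylamino-4-methylumbelliferyl-β-galactoside hydrolysis (0.1 mM final, pH 5.2) with fluorescent detection.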

Sequence of UniProt P54803 (P54803 whole entry, looked up): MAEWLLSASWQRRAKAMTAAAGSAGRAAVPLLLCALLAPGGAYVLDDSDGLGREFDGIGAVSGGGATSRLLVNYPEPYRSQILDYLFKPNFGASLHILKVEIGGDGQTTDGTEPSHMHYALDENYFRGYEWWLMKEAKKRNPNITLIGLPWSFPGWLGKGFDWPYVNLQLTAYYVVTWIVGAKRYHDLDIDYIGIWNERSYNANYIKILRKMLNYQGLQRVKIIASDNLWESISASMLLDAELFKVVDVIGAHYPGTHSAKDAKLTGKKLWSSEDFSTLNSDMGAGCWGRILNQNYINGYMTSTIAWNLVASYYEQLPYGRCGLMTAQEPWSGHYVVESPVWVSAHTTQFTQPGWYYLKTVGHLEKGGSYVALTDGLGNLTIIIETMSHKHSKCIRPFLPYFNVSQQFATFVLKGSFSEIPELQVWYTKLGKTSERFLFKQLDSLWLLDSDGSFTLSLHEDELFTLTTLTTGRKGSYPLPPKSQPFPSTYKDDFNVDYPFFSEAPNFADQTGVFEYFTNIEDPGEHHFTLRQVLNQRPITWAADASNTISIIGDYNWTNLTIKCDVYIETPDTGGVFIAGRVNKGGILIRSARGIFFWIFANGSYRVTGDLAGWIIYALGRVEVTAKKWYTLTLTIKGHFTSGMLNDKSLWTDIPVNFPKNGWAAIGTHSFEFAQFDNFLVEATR

activation, inactive:
O=C(CN1CCN(Cc2ccc(F)cc2Cl)C1=O)NCCc1ccc(Cl)cc1 -11.4%, CCOc1ccc(C(=O)Nc2ccc3oc(-c4cccc5ccccc45)nc3c2)cc1 -3.74%, O=C1CN(C(=O)c2ccc(S(=O)(=O)N3CCCC3)cc2)C(c2ccccc2)c2cc(Cl)ccc2N1 (stereo unspecified) -3.59%, COc1ccc(Cl)cc1NC(=O)CSc1nnc2[nH]c(=O)cc(C)n12 -14.2%, CCOc1ccc(-c2nc(C(N)=O)c3c(n2)n(-c2ccc4c(c2)OCO4)c(=O)n3CC)cc1 -11%, COc1ccccc1CNc1ncnc2c1c(-c1ccccc1)cn2-c1ccc(Br)cc1 -7.43%, COc1cc2c(=O)c(C(=O)c3ccc(F)cc3)cn(Cc3cccc(F)c3)c2cc1OC -7.42%, Cc1ccc(C(=O)NCCC(C)C)cc1NC(=O)c1nsc2ccccc12 -5.63%, CCN(CC)c1ccc(NC(=O)Cn2c3ncccc3c(=O)n2-c2ccccc2)c(C)c1 -15.1%, CC1=C(C(N)=O)C(c2ccccc2F)n2nc(-c3ccc(Cl)cc3)nc2N1 (stereo unspecified) -5.29%, COC(=O)c1cc(S(=O)(=O)N2CCN(c3cc(Cl)ccc3C)CC2)c[nH]1 5.67%, O=S(=O)(NCC(c1ccco1)N1CCOCC1)c1ccc(F)cc1 (stereo unspecified) 2.65%, Cc1cc(C)c2oc(C(=O)Nc3c(C(=O)c4ccccc4)oc4ccccc34)cc(=O)c2c1 -14.9%, Cc1ccc(CNC(=O)Cn2cc3c(n2)-c2c(oc(C(=O)N4CCOCC4)c2C)CC3)cc1 -3.85%, CCN(CC)CC(=O)Nc1c(C)cccc1C(=O)OC -7.69%, Cc1ccc2c(C)c(C(=O)N3CCC(c4nc5ccccc5s4)CC3)oc2c1C -18.7%, COc1cc(OC)c(OC)cc1CN1CCc2nc(N3CCN(c4ccccc4F)CC3)ncc2C1 -10.6%, O=C(Nc1ccccc1C(F)(F)F)Nc1c[nH]c(=O)[nH]c1=O 6.3%, COc1ccc(Nc2c(-c3ccco3)nc3cccc(C)n23)cc1 -10.9%, Cc1c(C(=O)OC2CCCCC2)[nH]c2c1C(=O)CC(c1ccccc1)C2 (stereo unspecified) -19.4%, Cc1ccc(OCC(=O)N(Cc2ccc(Cl)cc2)CC2CCCO2)cc1C (stereo unspecified) -8.39%, COc1ccc(C2C=C(c3ccccc3)Nc3nc(NS(=O)(=O)c4ccc(C)cc4)nn32)cc1 (stereo unspecified) -15.7%, O=S(=O)(c1cccc(C(F)(F)F)c1)N1CCC(Oc2ccc(-n3cnnn3)cc2)CC1 -15.2%, CCC(C)NC(=O)CSc1nc2c(sc3ccccc32)c(=O)n1CCc1ccccc1 (stereo unspecified) 4.89%, Cc1ccc2oc(=O)c3cnn(CC(=O)N4CCN(c5cccc(C(F)(F)F)c5)CC4)c3c2c1 -9.58%, Cc1cc(N2CCN(c3cccc(C(F)(F)F)c3)CC2)n2nc(-c3ccccc3C)nc2n1 -9.8%
